The record followed here is a collection of fitness landscapes (doi:10.1016/j.celrep.2020.107928).

B1: Caulobacter ParB omega fusion; a variant is named by its letters at X, in order, B8GW30 (parent)
chain: MESVVVGEPGMSEGRRGLGRGLSALLGEVDAAPAQAPGEQLGGSREAPIEILQRNPDQPRRTFREEDLEDLSNSIREKGVLQPILVRPSPDTAGEYQIVAGERAWRAAQRAGLKTVPIMVRELDDLAVLEIGIIENVQRADLNVLEEALSYKVLMEKFERTQENIAQTIGKSXSHVANXMRLLXLPDEVQSYLVSGELTAXHARAIAAAADPVALAKQIIEGGLSVRETEALARKAPNLSAGKSKGGRPPRVKDTDTQALESDLSSVLGLDVSIDHRGSTGTLTITYATLEQLDDLCNRLTRGI

In all, about 81,000 sequences were measured (“one-hybrid fitness for binding parS DNA”: median about -0.17, highest 2% from about 0.51 on). Some of the results follow.

The variants in this test derive from B1. The test can be described thus: one-hybrid fitness for binding parS DNA (scaled: cognate 1, non-cognate 0); higher = stronger binding. The note with it: with parS DNA site. The method, boiled down:
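On M9-minus-histidine containing 0.1 mM IPTG and 5 mM 3-AT, E. coli USO cells with a HIS3 reporter, site 19 bp from the promoter, grew 48 hours at 37°C to select Caulobacter ParB libraries randomised at four specificity codons. Plasmids from before and after were Illumina-sequenced, with three replicate libraries pooled and variants under 10 reads left out. Fitness is the log change in variant-to-wild-type read ratio, rescaled against cognate and non-cognate.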
On to RCRQ, for which the “one-hybrid fitness for binding parS DNA” value was at most 0.2.

For RYKQ, the “one-hybrid fitness for binding parS DNA” value was at most 0.2.

In the case of VSSK, the “one-hybrid fitness for binding parS DNA” value is at most 0.2.

On to QVMA, for which the “one-hybrid fitness for binding parS DNA” value was at most 0.2.

On to NDRL, for which the “one-hybrid fitness for binding parS DNA” value is at most 0.2.

Regarding CHCR, the “one-hybrid fitness for binding parS DNA” value is at most 0.2.

In the case of MAGC, the “one-hybrid fitness for binding parS DNA” value was at most 0.2.

For WSSI, the “one-hybrid fitness for binding parS DNA” value was at most 0.2.

With AYGY, the “one-hybrid fitness for binding parS DNA” value is at most 0.2.

Regarding SVAF, the “one-hybrid fitness for binding parS DNA” value was at most 0.2.

As for QSMI, the “one-hybrid fitness for binding parS DNA” value is at most 0.2.

In the case of SVRC, the “one-hybrid fitness for binding parS DNA” value was at most 0.2.

On to WIYE, for which the “one-hybrid fitness for binding parS DNA” value is at most 0.2.

For the variant GPEY, the “one-hybrid fitness for binding parS DNA” value is at most 0.2.

VING: the “one-hybrid fitness for binding parS DNA” value is at most 0.2.

For the variant QEMT, the “one-hybrid fitness for binding parS DNA” value is at most 0.2.

VTGP: the “one-hybrid fitness for binding parS DNA” value is at most 0.2.

In the case of PYQS, the “one-hybrid fitness for binding parS DNA” value was at most 0.2.

Turning to SYNK, the “one-hybrid fitness for binding parS DNA” value was at most 0.2.

Regarding HLNG, the “one-hybrid fitness for binding parS DNA” value is at most 0.2.

YMRG: the “one-hybrid fitness for binding parS DNA” value was at most 0.2.

Regarding EARV, the “one-hybrid fitness for binding parS DNA” value was at most 0.2.

As to HNAR, the “one-hybrid fitness for binding parS DNA” value is at most 0.2.

As to AWVC, the “one-hybrid fitness for binding parS DNA” value was at most 0.2.

VAAC: the “one-hybrid fitness for binding parS DNA” value is at most 0.2.

For YGKM, the “one-hybrid fitness for binding parS DNA” value was at most 0.2.

As to YESR, the “one-hybrid fitness for binding parS DNA” value is at most 0.2.

With QADI, the “one-hybrid fitness for binding parS DNA” value is at most 0.2.

With LNPM, the “one-hybrid fitness for binding parS DNA” value is at most 0.2.

Consider LEKQ, for which the “one-hybrid fitness for binding parS DNA” value was at most 0.2.

Turning to LIWR, the “one-hybrid fitness for binding parS DNA” value was at most 0.2.

As to AGIA, the “one-hybrid fitness for binding parS DNA” value was at most 0.2.

On to SKLA, for which the “one-hybrid fitness for binding parS DNA” value is at most 0.2.

Consider EKLV, for which the “one-hybrid fitness for binding parS DNA” value was at most 0.2.

As to FYNS, the “one-hybrid fitness for binding parS DNA” value was at most 0.2.

On to KWNT, for which the “one-hybrid fitness for binding parS DNA” value is at most 0.2.

As to QQYP, the “one-hybrid fitness for binding parS DNA” value was at most 0.2.

WSNR: the “one-hybrid fitness for binding parS DNA” value was at most 0.2.

On to KAKT, for which the “one-hybrid fitness for binding parS DNA” value is at most 0.2.

Consider WHLG, for which the “one-hybrid fitness for binding parS DNA” value was at most 0.2.

Turning to NVLS, the “one-hybrid fitness for binding parS DNA” value is at most 0.2.

As for NVTD, the “one-hybrid fitness for binding parS DNA” value is at most 0.2.

For RLFL, the “one-hybrid fitness for binding parS DNA” value is at most 0.2.

Turning to IRWV, the “one-hybrid fitness for binding parS DNA” value was at most 0.2.

On to RFCD, for which the “one-hybrid fitness for binding parS DNA” value was at most 0.2.

As for QRCG, the “one-hybrid fitness for binding parS DNA” value is at most 0.2.

For YQKV, the “one-hybrid fitness for binding parS DNA” value is at most 0.2.

EYVG: the “one-hybrid fitness for binding parS DNA” value is at most 0.2.

Consider DQKG, for which the “one-hybrid fitness for binding parS DNA” value is at most 0.2.

As to ALSP, the “one-hybrid fitness for binding parS DNA” value is at most 0.2.

RPFS: the “one-hybrid fitness for binding parS DNA” value is at most 0.2.

As to LTLH, the “one-hybrid fitness for binding parS DNA” value is at most 0.2.

For GFSA, the “one-hybrid fitness for binding parS DNA” value was at most 0.2.

Take MSEC: the “one-hybrid fitness for binding parS DNA” value was at most 0.2.

For the variant REEG, the “one-hybrid fitness for binding parS DNA” value was at most 0.2.

As to LSLF, the “one-hybrid fitness for binding parS DNA” value was at most 0.2.

Take RRSE: the “one-hybrid fitness for binding parS DNA” value is at most 0.2.

As to ARYI, the “one-hybrid fitness for binding parS DNA” value was at most 0.2.

As to DDTM, the “one-hybrid fitness for binding parS DNA” value is at most 0.2.

Regarding AWPC, the “one-hybrid fitness for binding parS DNA” value was at most 0.2.

Consider RVAP, for which the “one-hybrid fitness for binding parS DNA” value was at most 0.2.

Consider PKHM, for which the “one-hybrid fitness for binding parS DNA” value was at most 0.2.

LTNK: the “one-hybrid fitness for binding parS DNA” value is at most 0.2.

Turning to SIGP, the “one-hybrid fitness for binding parS DNA” value was at most 0.2.

On to QKDA, for which the “one-hybrid fitness for binding parS DNA” value is at most 0.2.

Take RSDT: the “one-hybrid fitness for binding parS DNA” value turned out to be 0.696.

With RWPF, the “one-hybrid fitness for binding parS DNA” value was at most 0.2.

On to ASTC, for which the “one-hybrid fitness for binding parS DNA” value is at most 0.2.

Take YYDN: the “one-hybrid fitness for binding parS DNA” value was at most 0.2.

As to TTFY, the “one-hybrid fitness for binding parS DNA” value is at most 0.2.

On to HELA, for which the “one-hybrid fitness for binding parS DNA” value was at most 0.2.

As for RDLE, the “one-hybrid fitness for binding parS DNA” value is at most 0.2.

KLTV: the “one-hybrid fitness for binding parS DNA” value was at most 0.2.

SSES: the “one-hybrid fitness for binding parS DNA” value is at most 0.2.

As to DKFY, the “one-hybrid fitness for binding parS DNA” value was at most 0.2.

Turning to VATP, the “one-hybrid fitness for binding parS DNA” value was at most 0.2.

Take PLVT: the “one-hybrid fitness for binding parS DNA” value is at most 0.2.

Take CPMS: the “one-hybrid fitness for binding parS DNA” value is at most 0.2.

Consider WNDC, for which the “one-hybrid fitness for binding parS DNA” value was at most 0.2.

For the variant KLNG, the “one-hybrid fitness for binding parS DNA” value is at most 0.2.

For WAVG, the “one-hybrid fitness for binding parS DNA” value was at most 0.2.

HIPC: the “one-hybrid fitness for binding parS DNA” value is at most 0.2.

ALKY: the “one-hybrid fitness for binding parS DNA” value is at most 0.2.

For QRQE, the “one-hybrid fitness for binding parS DNA” value was at most 0.2.

For RRHS, the “one-hybrid fitness for binding parS DNA” value came to 0.645.

HPCR: the “one-hybrid fitness for binding parS DNA” value is at most 0.2.

With NMAN, the “one-hybrid fitness for binding parS DNA” value is at most 0.2.

In the case of CWAM, the “one-hybrid fitness for binding parS DNA” value is at most 0.2.

On to HTMY, for which the “one-hybrid fitness for binding parS DNA” value was at most 0.2.

On to AQTC, for which the “one-hybrid fitness for binding parS DNA” value was at most 0.2.

KWKV: the “one-hybrid fitness for binding parS DNA” value is at most 0.2.

QGIL: the “one-hybrid fitness for binding parS DNA” value is at most 0.2.

Consider LIEL, for which the “one-hybrid fitness for binding parS DNA” value was at most 0.2.

Consider NDPR, for which the “one-hybrid fitness for binding parS DNA” value was at most 0.2.

Consider HAFP, for which the “one-hybrid fitness for binding parS DNA” value was at most 0.2.

In the case of SRQD, the “one-hybrid fitness for binding parS DNA” value is at most 0.2.

With KRIL, the “one-hybrid fitness for binding parS DNA” value was at most 0.2.

In the case of YRYY, the “one-hybrid fitness for binding parS DNA” value is at most 0.2.

Consider DFRT, for which the “one-hybrid fitness for binding parS DNA” value was at most 0.2.

For the variant VSDT, the “one-hybrid fitness for binding parS DNA” value was at most 0.2.

As for NSAF, the “one-hybrid fitness for binding parS DNA” value was at most 0.2.

Regarding SEER, the “one-hybrid fitness for binding parS DNA” value was at most 0.2.

Take LPTS: the “one-hybrid fitness for binding parS DNA” value is at most 0.2.

QKNV: the “one-hybrid fitness for binding parS DNA” value is at most 0.2.

GLKT: the “one-hybrid fitness for binding parS DNA” value is at most 0.2.

In the case of SYIG, the “one-hybrid fitness for binding parS DNA” value was at most 0.2.

For PEIW, the “one-hybrid fitness for binding parS DNA” value is at most 0.2.

With MQSS, the “one-hybrid fitness for binding parS DNA” value is at most 0.2.

In the case of HPML, the “one-hybrid fitness for binding parS DNA” value was at most 0.2.

Take YCGR: the “one-hybrid fitness for binding parS DNA” value was at most 0.2.

Regarding IVDS, the “one-hybrid fitness for binding parS DNA” value was at most 0.2.

As to FSVG, the “one-hybrid fitness for binding parS DNA” value was at most 0.2.

Turning to PEYC, the “one-hybrid fitness for binding parS DNA” value was at most 0.2.

In the case of AYPL, the “one-hybrid fitness for binding parS DNA” value was at most 0.2.

On to SSMT, for which the “one-hybrid fitness for binding parS DNA” value was at most 0.2.

Take AGQS: the “one-hybrid fitness for binding parS DNA” value was at most 0.2.

As to QDPK, the “one-hybrid fitness for binding parS DNA” value is at most 0.2.

Turning to AETA, the “one-hybrid fitness for binding parS DNA” value is at most 0.2.

Regarding DKLG, the “one-hybrid fitness for binding parS DNA” value was at most 0.2.

In the case of AMWF, the “one-hybrid fitness for binding parS DNA” value was at most 0.2.

As for APGH, the “one-hybrid fitness for binding parS DNA” value was at most 0.2.

Turning to SVSL, the “one-hybrid fitness for binding parS DNA” value is at most 0.2.

On to MKTD, for which the “one-hybrid fitness for binding parS DNA” value was at most 0.2.

As for NSGP, the “one-hybrid fitness for binding parS DNA” value was at most 0.2.

YVTS: the “one-hybrid fitness for binding parS DNA” value is at most 0.2.

For the variant LYKC, the “one-hybrid fitness for binding parS DNA” value is at most 0.2.

Regarding VPYF, the “one-hybrid fitness for binding parS DNA” value was at most 0.2.

PNSK: the “one-hybrid fitness for binding parS DNA” value was at most 0.2.

As to LFRT, the “one-hybrid fitness for binding parS DNA” value was at most 0.2.

Regarding NPPS, the “one-hybrid fitness for binding parS DNA” value is at most 0.2.

In the case of SNGM, the “one-hybrid fitness for binding parS DNA” value is at most 0.2.

For the variant ATEQ, the “one-hybrid fitness for binding parS DNA” value was at most 0.2.

With ASRV, the “one-hybrid fitness for binding parS DNA” value is at most 0.2.

On to IHWT, for which the “one-hybrid fitness for binding parS DNA” value is at most 0.2.

For the variant RMMD, the “one-hybrid fitness for binding parS DNA” value was at most 0.2.

For RARC, the “one-hybrid fitness for binding parS DNA” value was found to be 0.921.

Take YELT: the “one-hybrid fitness for binding parS DNA” value is at most 0.2.

In the case of DCSA, the “one-hybrid fitness for binding parS DNA” value was at most 0.2.

With NSPA, the “one-hybrid fitness for binding parS DNA” value is at most 0.2.

As for YTQR, the “one-hybrid fitness for binding parS DNA” value was at most 0.2.

For the variant SLWL, the “one-hybrid fitness for binding parS DNA” value was at most 0.2.

As for QMSR, the “one-hybrid fitness for binding parS DNA” value is at most 0.2.

For the variant PLNI, the “one-hybrid fitness for binding parS DNA” value is at most 0.2.

Turning to MAIY, the “one-hybrid fitness for binding parS DNA” value was at most 0.2.

With VPMC, the “one-hybrid fitness for binding parS DNA” value is at most 0.2.

Take PKLT: the “one-hybrid fitness for binding parS DNA” value is at most 0.2.

Regarding EAGS, the “one-hybrid fitness for binding parS DNA” value is at most 0.2.

Take QYLT: the “one-hybrid fitness for binding parS DNA” value is at most 0.2.

For QDSA, the “one-hybrid fitness for binding parS DNA” value is at most 0.2.

TQQG: the “one-hybrid fitness for binding parS DNA” value was at most 0.2.

ALDA: the “one-hybrid fitness for binding parS DNA” value was at most 0.2.

As for MYYR, the “one-hybrid fitness for binding parS DNA” value is at most 0.2.

As for HEKN, the “one-hybrid fitness for binding parS DNA” value is at most 0.2.
